Results reported in the supplement of paper PMC11316812.
± gives the standard deviation of the averaged measurements.

Tests used:
[1] = test system: hTERT-HMEC; test: percentage of EdU-negative (G0-arrested) nuclei per well, 72 h; higher = more G0 arrest; settings: reference: sequence is the full UniProt precursor, the tested protein was the secreted form or ectodomain
[2] = test system: MCF7; test: as above; settings: reference: sequence is the full UniProt precursor, the tested protein was the secreted form or ectodomain
[3] = protein concentration 0.0225 µM
[4] = protein concentration 0.0102857 µM
[5] = protein concentration 0.102857 µM
[6] = protein concentration 0.03125 µM
[7] = protein concentration 0.3125 µM
[8] = protein concentration 0.0257143 µM
[9] = protein concentration 0.257143 µM
[10] = protein concentration 0.00711 µM
[11] = protein concentration 0.0711 µM
[12] = protein concentration 0.00933 µM
[13] = protein concentration 0.0933 µM
[14] = protein concentration 0.0155 µM
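Note: secreted proteins added to cultured cells, EdU pulse at the end, nuclei found by Hoechst imaging, EdU status from nuclear versus surrounding ring intensity ratio, PBS as neutral control.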

Sequence: MNKQRGTFSEVSLAQDPKRQQRKPKGNKSSISGTEQEIFQVELNLQNPSLNHQGIDKIYDCQGLLPPPEKLTAEVLGIICIVLMATVLKTIVLIPFLEQNNFSPNTRTQKARHCGHCPEEWITYSNSCYYIGKERRTWEESLLACTSKNSSLLSIDNEEEMKFLASILPSSWIGVFRNSSHHPWVTINGLAFKHKIKDSDNAELNCAVLQVNRLKSAQCGSSMIYHCKHKL
- percentage of EdU-negative [1, 3]: 5.25 ± 0.89%
- percentage of EdU-negative ([1]; protein concentration 0.225 µM): 4.62 ± 0.25%
- percentage of EdU-negative [2, 3]: 26.3 ± 0.49%
- percentage of EdU-negative ([2]; protein concentration 0.225 µM): 29.6 ± 1.5%

Sequence: MQLKIMPKKKRLSAGRVPLILFLCQMISALEVPLDPKLLEDLVQPPTITQQSPKDYIIDPRENIVIQCEAKGKPPPSFSWTRNGTHFDIDKDPLVTMKPGTGTLIINIMSEGKAETYEGVYQCTARNERGAAVSNNIVVRPSRSPLWTKEKLEPITLQSGQSLVLPCRPPIGLPPPIIFWMDNSFQRLPQSERVSQGLNGDLYFSNVLPEDTREDYICYARFNHTQTIQQKQPISVKVISVDELNDTIAANLSDTEFYGAKSSRERPPTFLTPEGNASNKEELRGNVLSLECIAEGLPTPIIYWAKEDGMLPKNRTVYKNFEKTLQIIHVSEADSGNYQCIAKNALGAIHHTISVRVKAAPYWITAPQNLVLSPGEDGTLICRANGNPKPRISWLTNGVPIEIAPDDPSRKIDGDTIIFSNVQERSSAVYQCNASNEYGYLLANAFVNVLAEPPRILTPANTLYQVIANRPALLDCAFFGSPLPTIEWFKGAKGSALHEDIYVLHENGTLEIPVAQKDSTGTYTCVARNKLGMAKNEVHLEIKDPTWIVKQPEYAVVQRGSMVSFECKVKHDHTLSLTVLWLKDNRELPSDERFTVDKDHLVVADVSDDDSGTYTCVANTTLDSVSASAVLSVVAPTPTPAPVYDVPNPPFDLELTDQLDKSVQLSWTPGDDNNSPITKFIIEYEDAMHKPGLWHHQTEVSGTQTTAQLKLSPYVNYSFRVMAVNSIGKSLPSEASEQYLTKASEPDKNPTAVEGLGSEPDNLVITWKPLNGFESNGPGLQYKVSWRQKDGDDEWTSVVVANVSKYIVSGTPTFVPYLIKVQALNDMGFAPEPAVVMGHSGEDLPMVAPGNVRVNVVNSTLAEVHWDPVPLKSIRGHLQGYRIYYWKTQSSSKRNRRHIEKKILTFQGSKTHGMLPGLEPFSHYTLNVRVVNGKGEGPASPDRVFNTPEGVPSAPSSLKIVNPTLDSLTLEWDPPSHPNGILTEYTLKYQPINSTHELGPLVDLKIPANKTRWTLKNLNFSTRYKFYFYAQTSAGSGSQITEEAVTTVDEAGILPPDVGAGKVQAVNPRISNLTAAAAETYANISWEYEGPEHVNFYVEYGVAGSKEEWRKEIVNGSRSFFGLKGLMPGTAYKVRVGAVGDSGFVSSEDVFETGPAMASRQVDIATQGWFIGLMCAVALLILILLIVCFIRRNKGGKYPVKEKEDAHADPEIQPMKEDDGTFGEYSDAEDHKPLKKGSRTPSDRTVKKEDSDDSLVDYGEGVNGQFNEDGSFIGQYSGKKEKEPAEGNESSEAPSPVNAMNSFV
- percentage of EdU-negative [1, 4]: 5.35 ± 1.1%
- percentage of EdU-negative [1, 5]: 6.14 ± 0.51%
- percentage of EdU-negative [2, 4]: 23.6 ± 3.6%
- percentage of EdU-negative [2, 5]: 25.5 ± 1%

Sequence: MQPSSLLPLALCLLAAPASALVRIPLHKFTSIRRTMSEVGGSVEDLIAKGPVSKYSQAVPAVTEGPIPEVLKNYMDAQYYGEIGIGTPPQCFTVVFDTGSSNLWVPSIHCKLLDIACWIHHKYNSDKSSTYVKNGTSFDIHYGSGSLSGYLSQDTVSVPCQSASSASALGGVKVERQVFGEATKQPGITFIAAKFDGILGMAYPRISVNNVLPVFDNLMQQKLVDQNIFSFYLSRDPDAQPGGELMLGGTDSKYYKGSLSYLNVTRKAYWQVHLDQVEVASGLTLCKEGCEAIVDTGTSLMVGPVDEVRELQKAIGAVPLIQGEYMIPCEKVSTLPAITLKLGGKGYKLSPEDYTLKVSQAGKTLCLSGFMGMDIPPPSGPLWILGDVFIGRYYTVFDRDNNRVGFAEAARL
- percentage of EdU-negative [1, 6]: 5.76 ± 0.58%
- percentage of EdU-negative [1, 7]: 6.88 ± 0.68%
- percentage of EdU-negative [2, 6]: 27.24 ± 0.13%
- percentage of EdU-negative [2, 7]: 26.623 ± 0.004%

Sequence: MRKGLRATAARCGLGLGYLLQMLVLPALALLSASGTGSAAQDDDFFHELPETFPSDPPEPLPHFLIEPEEAYIVKNKPVNLYCKASPATQIYFKCNSEWVHQKDHIVDERVDETSGLIVREVSIEISRQQVEELFGPEDYWCQCVAWSSAGTTKSRKAYVRIAYLRKTFEQEPLGKEVSLEQEVLLQCRPPEGIPVAEVEWLKNEDIIDPVEDRNFYITIDHNLIIKQARLSDTANYTCVAKNIVAKRKSTTATVIVYVNGGWSTWTEWSVCNSRCGRGYQKRTRTCTNPAPLNGGAFCEGQSVQKIACTTLCPVDGRWTPWSKWSTCGTECTHWRRRECTAPAPKNGGKDCDGLVLQSKNCTDGLCMQTAPDSDDVALYVGIVIAVIVCLAISVVVALFVYRKNHRDFESDIIDSSALNGGFQPVNIKAARQDLLAVPPDLTSAAAMYRGPVYALHDVSDKIPMTNSPILDPLPNLKIKVYNTSGAVTPQDDLSEFTSKLSPQMTQSLLENEALSLKNQSLARQTDPSCTAFGSFNSLGGHLIVPNSGVSLLIPAGAIPQGRVYEMYVTVHRKETMRPPMDDSQTLLTPVVSCGPPGALLTRPVVLTMHHCADPNTEDWKILLKNQAAQGQWEDVVVVGEENFTTPCYIQLDAEACHILTENLSTYALVGHSTTKAAAKRLKLAIFGPLCCSSLEYSIRVYCLDDTQDALKEILHLERQMGGQLLEEPKALHFKGSTHNLRLSIHDIAHSLWKSKLLAKYQEIPFYHVWSGSQRNLHCTFTLERFSLNTVELVCKLCVRQVEGEGQIFQLNCTVSEEPTGIDLPLLDPANTITTVTGPSAFSIPLPIRQKLCSSLDAPQTRGHDWRMLAHKLNLDRYLNYFATKSSPTGVILDLWEAQNFPDGNLSMLAAVLEEMGRHETVVSLAAEGQY
- percentage of EdU-negative [1, 8]: 5.22 ± 0.21%
- percentage of EdU-negative [1, 9]: 9.421 ± 0.016%
- percentage of EdU-negative [2, 8]: 25.01 ± 0.19%
- percentage of EdU-negative [2, 9]: 26.58 ± 0.12%

Sequence: MRPGLSFLLALLFFLGQAAGDLGDVGPPIPSPGFSSFPGVDSSSSFSSSSRSGSSSSRSLGSGGSVSQLFSNFTGSVDDRGTCQCSVSLPDTTFPVDRVERLEFTAHVLSQKFEKELSKVREYVQLISVYEKKLLNLTVRIDIMEKDTISYTELDFELIKVEVKEMEKLVIQLKESFGGSSEIVDQLEVEIRNMTLLVEKLETLDKNNVLAIRREIVALKTKLKECEASKDQNTPVVHPPPTPGSCGHGGVVNISKPSVVQLNWRGFSYLYGAWGRDYSPQHPNKGLYWVAPLNTDGRLLEYYRLYNTLDDLLLYINARELRITYGQGSGTAVYNNNMYVNMYNTGNIARVNLTTNTIAVTQTLPNAAYNNRFSYANVAWQDIDFAVDENGLWVIYSTEASTGNMVISKLNDTTLQVLNTWYTKQYKPSASNAFMVCGVLYATRTMNTRTEEIFYYYDTNTGKEGKLDIVMHKMQEKVQSINYNPFDQKLYVYNDGYLLNYDLSVLQKPQ [Q6UX06]
- percentage of EdU-negative [1, 10]: 5.22 ± 0.32%
- percentage of EdU-negative [1, 11]: 6.54 ± 1%
- percentage of EdU-negative [2, 10]: 26.6 ± 2%
- percentage of EdU-negative [2, 11]: 28.1 ± 3.7%

Sequence: MRRLTRRLVLPVFGVLWITVLLFFWVTKRKLEVPTGPEVQTPKPSDADWDDLWDQFDERRYLNAKKWRVGDDPYKLYAFNQRESERISSNRAIPDTRHLRCTLLVYCTDLPPTSIIITFHNEARSTLLRTIRSVLNRTPTHLIREIILVDDFSNDPDDCKQLIKLPKVKCLRNNERQGLVRSRIRGADIAQGTTLTFLDSHCEVNRDWLQPLLHRVKEDYTRVVCPVIDIINLDTFTYIESASELRGGFDWSLHFQWEQLSPEQKARRLDPTEPIRTPIIAGGLFVIDKAWFDYLGKYDMDMDIWGGENFEISFRVWMCGGSLEIVPCSRVGHVFRKKHPYVFPDGNANTYIKNTKRTAEVWMDEYKQYYYAARPFALERPFGNVESRLDLRKNLRCQSFKWYLENIYPELSIPKESSIQKGNIRQRQKCLESQRQNNQETPNLKLSPCAKVKGEDAKSQVWAFTYTQQILQEELCLSVITLFPGAPVVLVLCKNGDDRQQWTKTGSHIEHIASHLCLDTDMFGDGTENGKEIVVNPCESSLMSQHWDMVSS [Q96FL9]
- percentage of EdU-negative [1, 12]: 5.05 ± 0.54%
- percentage of EdU-negative [1, 13]: 5.18 ± 0.58%
- percentage of EdU-negative [2, 12]: 26.8 ± 3.7%
- percentage of EdU-negative [2, 13]: 24.5 ± 0.55%

Sequence: MSERVERNWSTGGWLLALCLAWLWTHLTLAALQPPTATVLVQQGTCEVIAAHRCCNRNRIEERSQTVKCSCFSGQVAGTTRAKPSCVDASIVLQRWWCQMEPCLPGEECKVLPDLSGWSCSSGHKVKTTKVTR [Q7Z5A8]
- percentage of EdU-negative [1, 3]: 4.52 ± 0.85%
- percentage of EdU-negative ([1]; protein concentration 0.225 µM): 5.58 ± 0.31%
- percentage of EdU-negative [2, 3]: 25.2 ± 0.76%
- percentage of EdU-negative ([2]; protein concentration 0.225 µM): 27.3 ± 1.5%

Sequence: MSGSSLPSALALSLLLVSGSLLPGPGAAQNAGFVKSPMSETKLTGDAFELYCDVVGSPTPEIQWWYAEVNRAESFRQLWDGARKRRVTVNTAYGSNGVSVLRITRLTLEDSGTYECRASNDPKRNDLRQNPSITWIRAQATISVLQKPRIVTSEEVIIRDSPVLPVTLQCNLTSSSHTLTYSYWTKNGVELSATRKNASNMEYRINKPRAEDSGEYHCVYHFVSAPKANATIEVKAAPDITGHKRSENKNEGQDATMYCKSVGYPHPDWIWRKKENGMPMDIVNTSGRFFIINKENYTELNIVNLQITEDPGEYECNATNAIGSASVVTVLRVRSHLAPLWPFLGILAEIIILVVIIVVYEKRKRPDEVPDDDEPAGPMKTNSTNNHKDKNLRQRNTN [Q9Y639]
- percentage of EdU-negative [1, 8]: 5.56 ± 0.45%
- percentage of EdU-negative [1, 9]: 5.23 ± 0.17%
- percentage of EdU-negative [2, 8]: 24.7 ± 0.97%
- percentage of EdU-negative [2, 9]: 26.5 ± 0.83%

Sequence: MSSGGGSRGLLAWLLLLQPWPGQNWAGMAAPRLPSPLLSEEGGENPEASPAPGPEAGPPLNLFTSFPGDSLLCGRTPLRIVGGVDAEEGRWPWQVSVRTKGRHICGGTLVTATWVLTAGHCISSRFHYSVKMGDRSVYNENTSVVVSVQRAFVHPKFSTVTTIRNDLALLQLQHPVNFTSNIQPICIPQENFQVEGRTRCWVTGWGKTPEREKLASEILQDVDQYIMCYEECNKIIQKALSSTKDVIIKGMVCGYKEQGKDSCQGDSGGRLACEYNDTWVQVGIVSWGIGCGR [Q7Z5A4]
- percentage of EdU-negative [1, 3]: 5.81 ± 0.35%
- percentage of EdU-negative ([1]; protein concentration 0.225 µM): 7.13 ± 0.12%
- percentage of EdU-negative [2, 3]: 22.4 ± 3.4%
- percentage of EdU-negative ([2]; protein concentration 0.225 µM): 29.7 ± 0.68%

Sequence: MTKNEKKSLNQSLAEWKLFIYNPTTGEFLGRTAKSWGLILLFYLVFYGFLAALFSFTMWVMLQTLNDEVPKYRDQIPSPGLMVFPKPVTALEYTFSRSDPTSYAGYIEDLKKFLKPYTLEEQKNLTVCPDGALFEQKGPVYVACQFPISLLQACSGMNDPDFGYSQGNPCILVKMNRIIGLKPEGVPRIDCVSKNEDIPNVAVYPHNGMIDLKYFPYYGKKLHVGYLQPLVAVQVSFAPNNTGKEVTVECKIDGSANLKSQDDRDKFLGRVMFKITARA
- percentage of EdU-negative [1, 14]: 4.69 ± 1.3%
- percentage of EdU-negative ([1]; protein concentration 0.155 µM): 6.13 ± 0.067%
- percentage of EdU-negative [2, 14]: 26.1 ± 0.35%
- percentage of EdU-negative ([2]; protein concentration 0.155 µM): 29 ± 2.7%
